# About 1,100 (0.39%) of roughly 280,000 compounds were called active. The inconclusive results got no clear call from the source; some entries with a clear call stand among them for comparison. The call rests on the fitted dose curve; in most records, active means well fitted inhibition curve with a large enough effect; inconclusive means small, poorly fitted or top-dose-only effect, or effect the other way; inactive means flat fitted curve, though single readings scatter. No potency is given beside an inconclusive call; the fits are too rough.
# Biological target: Microtubule-associated protein tau (Homo sapiens) (UniProt P10636)
# Assay: qHTS for Inhibitors of Tau Fibril Formation, Fluorescence Polarization; further: nearly all actives have a fitted effect of over 55% in size
# Settings: K18 P301L tau heparin fibrillization, Alexa594 FP, 6 h; series mostly up to 57.7 µM
# Method in brief: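 Human tau K18 […] P301L fragment, 15 uM unlabeled plus 0.24 uM Alexa 594-labeled tau (final), with compound and 20 uM heparin in 100 mM sodium acetate pH 7; 6 hr at 37 C, then Alexa 594 FP read.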
# On the % scale 0 is the no-effect control and ±100 the full control effect; potency means the concentration at half of the fitted maximal effect; tags describe the fitted curve by direction and shape.
# Sequence of UniProt P10636 (P10636 whole entry, looked up): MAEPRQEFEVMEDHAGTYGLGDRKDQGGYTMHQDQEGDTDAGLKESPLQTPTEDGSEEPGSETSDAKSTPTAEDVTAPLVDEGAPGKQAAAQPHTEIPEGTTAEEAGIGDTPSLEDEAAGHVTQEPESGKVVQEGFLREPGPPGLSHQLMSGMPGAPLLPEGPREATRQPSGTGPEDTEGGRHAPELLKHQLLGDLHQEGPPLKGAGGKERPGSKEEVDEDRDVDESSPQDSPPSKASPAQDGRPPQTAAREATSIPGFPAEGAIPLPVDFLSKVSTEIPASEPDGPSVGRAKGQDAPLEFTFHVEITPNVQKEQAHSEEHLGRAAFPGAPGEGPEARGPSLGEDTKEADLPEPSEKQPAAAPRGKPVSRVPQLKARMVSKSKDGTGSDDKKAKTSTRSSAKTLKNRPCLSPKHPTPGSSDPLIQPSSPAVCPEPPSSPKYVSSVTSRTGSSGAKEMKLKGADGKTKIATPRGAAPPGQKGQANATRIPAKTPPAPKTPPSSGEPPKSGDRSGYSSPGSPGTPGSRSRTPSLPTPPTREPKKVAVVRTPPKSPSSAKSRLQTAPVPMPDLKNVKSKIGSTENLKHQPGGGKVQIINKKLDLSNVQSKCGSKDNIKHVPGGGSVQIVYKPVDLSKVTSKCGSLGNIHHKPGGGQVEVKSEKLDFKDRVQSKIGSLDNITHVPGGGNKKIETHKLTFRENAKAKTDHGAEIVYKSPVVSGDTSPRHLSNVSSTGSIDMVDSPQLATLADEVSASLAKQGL
SMILES,Potency,"activity, negative = inhibition"
NC(C(=O)N[C@@H]1C(=O)N2C(C(=O)O)=C(Cl)CS[C@H]12)c1ccccc1 (stereo partly specified),"inconclusive [inhibitor, partial curve]",–
CCOC(=O)c1cccc(NC(=O)CCc2nc(-c3ccc(C)cc3)no2)c1,"inconclusive [inhibitor, partial curve]",–
CC(C)(C)C(=O)OCCNc1nc(-c2ccccc2)nc2ccccc12,"inconclusive [inhibitor, partial curve]",–
COc1ccccc1C(=O)Nc1c(C(=O)Nc2ccc(C)cc2)oc2ccccc12,"inconclusive [inhibitor, partial curve]",–
O=C(N/N=C/C(Br)=C/c1ccccc1)c1cccs1,"inconclusive [inhibitor, partial curve]",–
O=C(Nc1nc(=O)n(C(=O)C2CC2)s1)c1ccccc1,"inconclusive [inhibitor, partial curve]",–
COc1ccccc1CNC(=O)C(C)n1c(=O)cc(C(F)(F)F)c2c(C)nn(C)c21 (stereo unspecified),inactive,–
Cc1cccc(NC(=O)CN2C(=O)CCc3ccccc32)c1C,"inconclusive [inhibitor, partial curve]",–
CCN1CCN(C(=O)c2ccc3c(c2)N(Cc2cc(C)ccc2C)C(=O)c2ccccc2S3(=O)=O)CC1,inactive,–
CSc1nc(N2CCN(c3ccccc3Cl)CC2)c2ccccc2n1,"inconclusive [inhibitor, partial curve, poor fit]",–
Cn1ncc(N=Cc2ccccc2)c1C(N)=O,inactive,–
Clc1cccc(NCc2nnc(SCc3ccc(Cl)cc3Cl)o2)c1,inactive,–
Cc1cc(NC(=O)CN(c2cccc(C)c2C)S(=O)(=O)c2ccccc2)ccc1Br,"inconclusive [inhibitor, partial curve]",–
Cc1ccc(N=C2NC(=O)S/C2=C\c2ccco2)cc1,inactive,–
CC(=O)N1CCCc2cc(S(=O)(=O)NCc3ccc(OC(C)C)cc3)ccc21,inactive,–
CCOc1ccccc1NC(=O)CCN1CCN(S(=O)(=O)c2ccc(Br)cc2)CC1,inactive,–
CC1(OC(=O)C2CCCC2)C(=O)C=C2C=C(c3ccsc3)N(CC3CC3)C=C2C1=O (stereo unspecified),inactive,–
COc1cccc(NC(=O)c2oc3ccccc3c2NC(=O)Cc2cccc(C)c2)c1,"inconclusive [inhibitor, full curve]",–
CCOc1ccc(NC(=S)NNC(=S)Nc2cccc(C(F)(F)F)c2)cc1,"inconclusive [inhibitor, single point]",–
COc1cccc(N2CCN(C(=O)CCCCCNc3nc(=S)[nH]c4ccccc34)CC2)c1,inactive,–
CC(C)C1Nc2ccc(S(N)(=O)=O)cc2C2C=CCC21 (stereo unspecified),"inconclusive [inhibitor, single point]",–
O=Cc1cc(N=Nc2ccccc2Cl)ccc1O,"inconclusive [inhibitor, single point]",–

SMILES,Potency,"activity, negative = inhibition"
COc1ccc(N2CC(NC(=O)c3ccc(S(=O)(=O)N4CCOCC4)cc3)CC2=O)cc1 (stereo unspecified),"inconclusive [inhibitor, single point]",–
O=C(NNC(=S)Nc1ccc(Br)cc1)c1ccc(N2CCOCC2)c([N+](=O)[O-])c1,"inconclusive [activator, single point]",–
CN(C(=O)CCc1nc2ccccc2s1)c1ccccc1,inactive,–
Cc1sc2c(c1C)c(=O)n(Cc1ccccc1)c(=O)n2CC(=O)Nc1cccc(Cl)c1,active: 31.6 µM,–
CCOc1ccc(CCNC(=O)c2sc3nc4n(c(=O)c3c2C)CCCC4)cc1,inactive,–
O=C(NCc1nc2ccccc2[nH]1)C1=C[C@H](c2csc3ccccc23)C[C@H](OCc2ccc(CO)cc2)O1,"inconclusive [inhibitor, single point]",–
CC1=NN(c2nc(-c3ccc(C)cc3)cs2)C(=O)C1N=Nc1cccc(C)c1 (stereo unspecified),"inconclusive [activator, single point]",–
c1ccc(-c2nc(NCc3ccco3)c3oc4ccccc4c3n2)cc1,"inconclusive [inhibitor, partial curve, poor fit]",–
CCC(=O)Nc1ccc(C(=O)CSc2nc3ccccc3cc2CC)cc1,"inconclusive [inhibitor, partial curve]",–
O=C(Nc1ccc2nc(-c3ccco3)c(-c3ccco3)nc2c1)NC1CC1,"inconclusive [inhibitor, single point]",–
Cc1csc2c(N3CCN(C(=O)Nc4ccc(Cl)c(Cl)c4)CC3)ncnc12,"inconclusive [inhibitor, partial curve]",–
COc1ccc(OC)c(/C=C/C(=O)OCC(=O)Nc2cccc(Oc3ccccc3)c2)c1,"inconclusive [inhibitor, full curve]",–
CCC1C2CN(C(C)=O)CC=C2C(C#N)=C(N)C1(C#N)C#N (stereo unspecified),"inconclusive [inhibitor, single point]",–
CCOC(=O)c1sc(NC(=O)CCN2CC(C)OC(C)C2)c(C(=O)OCC)c1C (stereo unspecified),inactive,–
COc1ccc(Cn2c(=O)[nH]c3cc(C(=O)NCCc4ccc(S(N)(=O)=O)cc4)ccc3c2=O)cc1,"inconclusive [inhibitor, single point]",–
O=C(CCCCCn1c(=O)[nH]c2ccsc2c1=O)N1CCCCC1,inactive,–
O=C(c1cnn(C(=O)c2cccc(S(=O)(=O)N3CCOCC3)c2)c1)c1ccccc1O,inactive,–
CCOc1ccc(-c2csc(/C(C#N)=C\c3ccc(O)c([N+](=O)[O-])c3)n2)cc1,"inconclusive [activator, single point]",–
CC(C)NC(=O)c1sc2ncccc2c1-n1cccc1,inactive,–
Cc1ccc(N2C(=O)C(CC(=O)Nc3ccccc3)N(CCC3=CCCCC3)C2=O)cc1 (stereo unspecified),inactive,–
COCCN(C(=O)Cn1nnc2ccccc21)C(C(=O)NC1CCCC1)c1ccc(OC)cc1OC (stereo unspecified),inactive,–
CCOC(=O)C1C(=O)CC(C)(O)C(C(=O)OCC)C1c1ccc(NC(C)=O)cc1 (stereo unspecified),"inconclusive [activator, full curve, poor fit]",–

SMILES,Potency,"activity, negative = inhibition"
Cc1cc(=O)[nH]c(SCCCOc2ccc(F)cc2)n1,inactive,–
O=C(N/C=C/c1ccco1)Nc1cccc(Cl)c1,"inconclusive [activator, full curve, poor fit]",–
CCNc1ccc(Br)cc(C(=O)/C=C/c2c(Cl)cccc2Cl)c1=O,"inconclusive [inhibitor, partial curve]",–
NC(=O)[C@H]1CC2(CC(c3cccc(NC(=O)COc4ccc(Cl)cc4)c3)=NO2)CN1C(=O)Cc1ccc([N+](=O)[O-])cc1 (stereo partly specified),"inconclusive [activator, single point]",–
COc1ccc(Cn2c(-c3ccco3)nc3c(c(=O)c4ccccc4n3C)c2=O)cc1,–,inactive: -3.81% [at 0.0958 µM]
Cc1cc(C)c2cc(CN(CCN3CCCC3)C(=O)Nc3ccc(F)cc3)c(=O)[nH]c2c1,"inconclusive [inhibitor, partial curve, poor fit]",–
COc1cc2cc(C(c3nnnn3C(C)(C)C)N3CCc4ccccc43)c(=O)[nH]c2cc1OC (stereo unspecified),inactive,–
CC(C)c1nnc(NC(=O)c2nc(S(=O)(=O)Cc3ccccc3)ncc2Cl)s1,"inconclusive [inhibitor, single point]",–
Cc1ccc(NC(=O)c2ccc(F)c(S(=O)(=O)N3CCc4ccccc4C3)c2)cc1F,"inconclusive [inhibitor, partial curve]",–
O=C(NCCc1c[nH]c2ccccc12)C(=O)NCC1OCCN1S(=O)(=O)c1ccc(Cl)cc1 (stereo unspecified),"inconclusive [activator, single point]",–
C=CCn1c(CCNC(=O)c2cccs2)nnc1SCC(=O)Nc1cccc(F)c1,"inconclusive [inhibitor, single point]",–
CC1=CC(=O)C(C(C)C)=C/C1=N/OC(=O)c1cccc([N+](=O)[O-])c1,inactive,–
CCOC(=O)c1ccc(NC(=O)CN2C(=O)CC(c3ccc(C)c(C)c3)=Nc3ccccc32)cc1,"inconclusive [inhibitor, partial curve]",–
CCOc1ccc(CCNC(=O)c2ccc3c(c2)N(Cc2cccc(Cl)c2)C(=O)c2ccccc2S3(=O)=O)cc1OCC,"inconclusive [inhibitor, partial curve]",–
CCN(Cc1ccccc1)C(=O)CCS(=O)(=O)c1ccc2c(c1)oc(=O)n2C,"inconclusive [inhibitor, single point]",–
CN1C(=O)c2ccccc2Sc2ccc(NC(=O)COc3ccc(Cl)cc3)cc21,"inconclusive [inhibitor, partial curve]",–
CCCCC(=O)Nc1cccc(-c2cn3ccccc3n2)c1,"inconclusive [inhibitor, single point]",–
O=C(Nc1cccc(C(F)(F)F)c1)C(SCCO)c1ccccc1 (stereo unspecified),"inconclusive [inhibitor, full curve]",–
Cc1cc(C(=O)CSc2nnc(-c3ccc(OC(F)F)cc3)o2)c(C)n1Cc1cccs1,"inconclusive [inhibitor, single point]",–
Cc1cc(O)c(C=O)c2c1C(=O)Oc1c(C)c(O)c3c(c1O2)C(O)OC3=O (stereo unspecified),"inconclusive [inhibitor, full curve]",–
Cc1[nH]n(-c2nc(-c3cccc([N+](=O)[O-])c3)cs2)c(=O)c1C,inactive,–
O=C(Nc1ccc(F)c(Cl)c1)C1CCCN1S(=O)(=O)c1ccc(F)cc1 (stereo unspecified),"inconclusive [inhibitor, full curve, poor fit]",–
